Experimental findings from PubChem BioAssay (NCI) are described below.

This experiment relates to MDA-MB-468 breast. Description: DTP human tumour cell line panel, 48 h.

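Five compound concentrations were applied to cells in 96-well plates for 48 hours; endpoints were derived by simple linear interpolation of the resulting dose-response curve. GI50 = concentration required for 50% inhibition of growth.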 For part of its entries the source gives two or more results. Only these are listed. There may be further records. Records of one sample usually come from different ranges of test concentrations, not given here; a value can be the end of its range. Bounds are passed on as bounds.

The term GI50 denotes the concentration giving 50% growth inhibition. Read a low GI50 as more potent growth inhibition. Regarding `O=NN(CCCl)C(=O)NCCCl`, the GI50 is > 500 µM [1 test] and 46.8 µM [mean of 2 tests].
